Data reported in paper PMC11743776, “Isoxazole-based molecules restore NK cell immune surveillance in hepatocarcinogenesis by targeting TM4SF5 and SLAMF7 linkage” (Signal Transduction and Targeted Therapy, 2025).
Results are given in words; binding and its absence hold for the method and conditions named. In cells and extracts the contact can be indirect. Some binding calls cover weakened binding; strength is not graded here. For part of these data: Tags and fused reporters may be left off the sequences shown.

Chains of the proteins cited; added tags and fusions are not shown. Lines headed by an entry give the natural chain unless they say otherwise; changes in a name come on top.
UniProt O14894: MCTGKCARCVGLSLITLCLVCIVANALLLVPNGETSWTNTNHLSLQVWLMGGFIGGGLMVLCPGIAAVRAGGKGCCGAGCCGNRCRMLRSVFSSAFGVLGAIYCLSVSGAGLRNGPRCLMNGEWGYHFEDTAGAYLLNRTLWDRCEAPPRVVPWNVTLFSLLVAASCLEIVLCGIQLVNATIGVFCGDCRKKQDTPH

What was measured:
[1] = target: T1, LAMP1, endogenous in HCC patient liver tissue (human (endogenous in HCC patient tissue)) (UniProt P11279); assay: co-IP; whole tissue extracts of HCC patient tumor and non-tumor liver tissues immunoprecipitated with anti-LAMP1 antibody, immunoblot for TM4SF5 and SLAMF7
T1 sequence: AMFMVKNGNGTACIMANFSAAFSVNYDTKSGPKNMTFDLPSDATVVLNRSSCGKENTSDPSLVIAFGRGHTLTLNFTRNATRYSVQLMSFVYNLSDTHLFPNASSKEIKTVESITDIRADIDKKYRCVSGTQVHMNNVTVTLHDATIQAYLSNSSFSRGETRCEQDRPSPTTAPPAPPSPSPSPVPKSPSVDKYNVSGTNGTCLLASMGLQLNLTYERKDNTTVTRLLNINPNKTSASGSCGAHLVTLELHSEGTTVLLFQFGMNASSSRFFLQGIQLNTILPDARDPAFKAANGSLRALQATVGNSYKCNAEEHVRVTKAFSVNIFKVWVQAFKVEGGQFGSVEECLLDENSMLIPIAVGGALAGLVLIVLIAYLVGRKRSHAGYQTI

[2] = target: Strep-TM4SF5 (transmembrane 4 L six family member 5), wild type (human) (UniProt O14894); assay: pull-down; lysates of subconfluent SNU761 cells expressing Strep-TM4SF5 pulled down with streptavidin-agarose beads (4 h, 4 °C), immunoblot for endogenous SLAMF7
[3] = target: Strep-TM4SF5 (transmembrane 4 L six family member 5), wild type (human) (UniProt O14894); assay: pull-down; as a1, but the SNU761 cells expressing Strep-TM4SF5 were treated with ST-5-001 (DMSO as control) before harvest; streptavidin-agarose pull-down, immunoblot for SLAMF7
[4] = target: Strep-TM4SF5 (transmembrane 4 L six family member 5), wild type (human) (UniProt O14894); assay: co-IP; SNU761 cells transiently transfected with WT or N-glycosylation mutants of SLAMF7, coimmunoprecipitation with TM4SF5 (Fig. 4f); details not told
[5] = target: Strep-TM4SF5 (transmembrane 4 L six family member 5), wild type (human) (UniProt O14894); assay: pull-down; SNU761 cells transfected with Strep-TM4SF5 (WT or Gly−) and FLAG-SLAMF7 (WT, deletion or N-glycosylation mutants), lysed in Brij58 lysis buffer (20 mM HEPES pH 7.4, 150 mM NaCl, 2 mM MgCl2, 2 mM CaCl2, 1% Brij58), streptavidin-agarose 4 h at 4 °C, immunoblot; also after treatment of the cells for 24 h with ST-5-002 (binding reduced) or ST-3-001 (binding not reduced, rather increased)
[6] = target: Strep-TM4SF5 Gly− (N-glycosylation-deficient, N138A/N155Q) (human) (UniProt O14894); assay: as above

Molecule | binding [5] | other results
TM4SF5, endogenous in HCC patient liver tissue (from UniProt O14894 1-197) | – | binding [1]: binds
SLAMF7 (signaling lymphocytic activation molecule family member 7), endogenous in SNU761 cells (protein, UniProt Q9NQ25 23-335) SGPVKELVGSVGGAVTFPLKSKVKQVDSIVWTFNTTPLVTIQPEGGTIIVTQNRNRERVDFPDGGYSLKLSKLKKNDSGIYYVGIYSSSLQQPSTQEYVLHVYEHLSKPKVTMGLQSNKNGTCVTNLTCCMEHGEEDVIYTWKALGQAANESHNGSILPISWRWGESDMTFICVARNPVSRNFSSPILARKLCEGAADDPDSSMVLLCLLLVPLLLSLFVLGLFLWFLKRERQEEYIEEKKRVDICRETPNICPHSGENTEYDTIPHTNRTILKEDPANTVYSTVEIPKKMENPHSLLTMPDTPRLFAYENVI | – | binding [2]: binds; binding [3]: no binding (condition: cells treated with ST-5-001)
SLAMF7 NQ#123 (N98/142/148Q) (protein, UniProt Q9NQ25 23-335) SGPVKELVGSVGGAVTFPLKSKVKQVDSIVWTFNTTPLVTIQPEGGTIIVTQNRNRERVDFPDGGYSLKLSKLKKQDSGIYYVGIYSSSLQQPSTQEYVLHVYEHLSKPKVTMGLQSNKQGTCVTQLTCCMEHGEEDVIYTWKALGQAANESHNGSILPISWRWGESDMTFICVARNPVSRNFSSPILARKLCEGAADDPDSSMVLLCLLLVPLLLSLFVLGLFLWFLKRERQEEYIEEKKRVDICRETPNICPHSGENTEYDTIPHTNRTILKEDPANTVYSTVEIPKKMENPHSLLTMPDTPRLFAYENVI | – | binding [4]: binds weakly
FLAG-SLAMF7, wild type (protein, UniProt Q9NQ25 23-335) SGPVKELVGSVGGAVTFPLKSKVKQVDSIVWTFNTTPLVTIQPEGGTIIVTQNRNRERVDFPDGGYSLKLSKLKKNDSGIYYVGIYSSSLQQPSTQEYVLHVYEHLSKPKVTMGLQSNKNGTCVTNLTCCMEHGEEDVIYTWKALGQAANESHNGSILPISWRWGESDMTFICVARNPVSRNFSSPILARKLCEGAADDPDSSMVLLCLLLVPLLLSLFVLGLFLWFLKRERQEEYIEEKKRVDICRETPNICPHSGENTEYDTIPHTNRTILKEDPANTVYSTVEIPKKMENPHSLLTMPDTPRLFAYENVI | binds | binding [6]: no binding
FLAG-SLAMF7 ΔECD (Δ1–225) (domain or fragment, UniProt Q9NQ25 226-335) MVLLCLLLVPLLLSLFVLGLFLWFLKRERQEEYIEEKKRVDICRETPNICPHSGENTEYDTIPHTNRTILKEDPANTVYSTVEIPKKMENPHSLLTMPDTPRLFAYENVI | binds | –
SLAMF7, endogenous in HCC patient liver tissue (protein, UniProt Q9NQ25 23-335) SGPVKELVGSVGGAVTFPLKSKVKQVDSIVWTFNTTPLVTIQPEGGTIIVTQNRNRERVDFPDGGYSLKLSKLKKNDSGIYYVGIYSSSLQQPSTQEYVLHVYEHLSKPKVTMGLQSNKNGTCVTNLTCCMEHGEEDVIYTWKALGQAANESHNGSILPISWRWGESDMTFICVARNPVSRNFSSPILARKLCEGAADDPDSSMVLLCLLLVPLLLSLFVLGLFLWFLKRERQEEYIEEKKRVDICRETPNICPHSGENTEYDTIPHTNRTILKEDPANTVYSTVEIPKKMENPHSLLTMPDTPRLFAYENVI | – | binding [1]: binds
FLAG-SLAMF7 ΔTM (Δ226–247) (protein, UniProt Q9NQ25) SGPVKELVGSVGGAVTFPLKSKVKQVDSIVWTFNTTPLVTIQPEGGTIIVTQNRNRERVDFPDGGYSLKLSKLKKNDSGIYYVGIYSSSLQQPSTQEYVLHVYEHLSKPKVTMGLQSNKNGTCVTNLTCCMEHGEEDVIYTWKALGQAANESHNGSILPISWRWGESDMTFICVARNPVSRNFSSPILARKLCEGAADDPDSSWFLKRERQEEYIEEKKRVDICRETPNICPHSGENTEYDTIPHTNRTILKEDPANTVYSTVEIPKKMENPHSLLTMPDTPRLFAYENVI | no binding | –
FLAG-SLAMF7 NQ#6 (N204Q) (protein, UniProt Q9NQ25 23-335) SGPVKELVGSVGGAVTFPLKSKVKQVDSIVWTFNTTPLVTIQPEGGTIIVTQNRNRERVDFPDGGYSLKLSKLKKNDSGIYYVGIYSSSLQQPSTQEYVLHVYEHLSKPKVTMGLQSNKNGTCVTNLTCCMEHGEEDVIYTWKALGQAANESHNGSILPISWRWGESDMTFICVARNPVSRQFSSPILARKLCEGAADDPDSSMVLLCLLLVPLLLSLFVLGLFLWFLKRERQEEYIEEKKRVDICRETPNICPHSGENTEYDTIPHTNRTILKEDPANTVYSTVEIPKKMENPHSLLTMPDTPRLFAYENVI | no binding | –
FLAG-SLAMF7 NQ#45 (N172/176Q) (protein, UniProt Q9NQ25 23-335) SGPVKELVGSVGGAVTFPLKSKVKQVDSIVWTFNTTPLVTIQPEGGTIIVTQNRNRERVDFPDGGYSLKLSKLKKNDSGIYYVGIYSSSLQQPSTQEYVLHVYEHLSKPKVTMGLQSNKNGTCVTNLTCCMEHGEEDVIYTWKALGQAAQESHQGSILPISWRWGESDMTFICVARNPVSRNFSSPILARKLCEGAADDPDSSMVLLCLLLVPLLLSLFVLGLFLWFLKRERQEEYIEEKKRVDICRETPNICPHSGENTEYDTIPHTNRTILKEDPANTVYSTVEIPKKMENPHSLLTMPDTPRLFAYENVI | no binding | –
FLAG-SLAMF7 NQ#456 (N172/176/204Q) (protein, UniProt Q9NQ25 23-335) SGPVKELVGSVGGAVTFPLKSKVKQVDSIVWTFNTTPLVTIQPEGGTIIVTQNRNRERVDFPDGGYSLKLSKLKKNDSGIYYVGIYSSSLQQPSTQEYVLHVYEHLSKPKVTMGLQSNKNGTCVTNLTCCMEHGEEDVIYTWKALGQAAQESHQGSILPISWRWGESDMTFICVARNPVSRQFSSPILARKLCEGAADDPDSSMVLLCLLLVPLLLSLFVLGLFLWFLKRERQEEYIEEKKRVDICRETPNICPHSGENTEYDTIPHTNRTILKEDPANTVYSTVEIPKKMENPHSLLTMPDTPRLFAYENVI | no binding | –
